{"source": "PubChem BioAssay AID1508642", "about": "(National Center for Advancing Translational Sciences (NCATS), 2021)", "note": "The whole screen tested about 43,000 compounds, of which about 200 (0.47%) were called active. Another 12% or so got no clear call; they are omitted. Calls follow the shape of the dose curve; as a rule, active = well fitted cell-killing curve with a large enough effect; inconclusive = small, poorly fitted or top-dose-only effect, or effect the other way; inactive = flat fitted curve, though single readings scatter. This is one part of the list. % is scaled to controls: 0 for no effect and ±100 for the full control effect; potency is read from the fitted curve at half-maximal effect."}
{"test": "Cell viability qHTS assay in S16 Pmp22-F2sN cells; also: nearly all actives have a fitted effect of over 65% in size", "settings": "S16 Pmp22-F2sN Schwann cells (luciferase reporters placed in the Pmp22 gene) viability, CellTiter-Glo, 24 h; series mostly up to 57.5 µM; activity change, negative = cytotoxicity: at the top concentration", "outline": "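Seed 500-1,000 S16 Pmp22-F2sN cells per well in phenol-red-free DMEM with 10% heat-inactivated FBS; pin-add 23 nL compound; incubate 24 h at 37C; add CellTiter-Glo, wait 15 min protected from light; read luminescence.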"}
{"smiles": "O=S(=O)(Nc1ccccc1C(F)(F)F)c1ccc(N2CCCCS2(=O)=O)cc1", "activity change, negative = cytotoxicity": "inactive: 7.6%"}
{"smiles": "COc1ccc(OC)c(NC(=O)Cn2cnc3ccc(S(=O)(=O)N4CCC(C)CC4)cc3c2=O)c1", "activity change, negative = cytotoxicity": "inactive: 1.08%"}
{"smiles": "CN(Cc1ccccc1)C(=O)c1ccc2c(c1)N(Cc1ccccc1F)C(=O)c1ccccc1S2(=O)=O", "activity change, negative = cytotoxicity": "inactive: 1.22%"}
{"smiles": "O=C(Nc1cc(-c2nc3ccccc3s2)ccc1Cl)c1cc2ccccc2o1", "activity change, negative = cytotoxicity": "inactive: 9.15%"}
{"smiles": "Cc1cc(C)c2oc(C(=O)Nc3ccc(S(=O)(=O)N4CCCCC4)cc3)cc(=O)c2c1", "activity change, negative = cytotoxicity": "inactive: 6.68%"}
{"smiles": "Cc1ccc(Cl)cc1-n1c(=O)cc(N2CCN(c3ccc(F)cc3)CC2)[nH]c1=O", "activity change, negative = cytotoxicity": "inactive: -6.91%"}
{"smiles": "Cc1ccc(-c2nc3sc(CCNS(=O)(=O)c4cc(F)ccc4F)c(C)n3n2)cc1", "activity change, negative = cytotoxicity": "inactive: -24%"}
{"smiles": "CC(=O)N(Cc1cccnc1)c1nc2c(F)cc(F)cc2s1", "activity change, negative = cytotoxicity": "inactive: -0.448%"}
{"smiles": "COc1ccc(Cl)cc1NS(=O)(=O)c1ccc2[nH]c3c(c2c1)CCCC3", "activity change, negative = cytotoxicity": "inactive: -12%"}
{"smiles": "Cc1ccc2c(CN3CCN(C(=O)c4ccc(F)cc4)CC3)cc(=O)oc2c1", "activity change, negative = cytotoxicity": "inactive: 14.3%"}
{"smiles": "Cc1ccc(OCC(=O)N(c2ccc(C)cc2)S(=O)(=O)c2ccc(Cl)cc2)cc1", "activity change, negative = cytotoxicity": "inactive: 2.91%"}
{"smiles": "Cn1c(=O)n(C)c2cc(NS(=O)(=O)c3ccc(F)cc3)ccc21", "activity change, negative = cytotoxicity": "inactive: 4.3%"}
{"smiles": "COc1cccc(C(=O)Nc2ccc3nc(SCC(=O)N4CCOCC4)sc3c2)c1", "activity change, negative = cytotoxicity": "inactive: 2.01%"}
{"smiles": "COc1cc2nc(NCCC(C)C)n3nc(-c4ccccc4)nc3c2cc1OC", "activity change, negative = cytotoxicity": "inactive: 1.97%"}
{"smiles": "CCCCS(=O)(=O)c1oc(-c2cccs2)nc1S(=O)(=O)c1ccccc1", "Potency": "active: 2.51 µM"}
{"smiles": "Cc1cc(C)n2c(Nc3ccc(Cl)cc3)c(-c3ccsc3)nc2n1", "activity change, negative = cytotoxicity": "inactive: 9.99%"}
{"smiles": "COc1ccccc1CNC(=O)CN1C(=O)COc2ccc(S(=O)(=O)Nc3ccccc3)cc21", "activity change, negative = cytotoxicity": "inactive: 0.417%"}
{"smiles": "CC(C)(C)c1ccc(C(=O)NCCc2csc3nc(-c4ccccc4F)nn23)cc1", "activity change, negative = cytotoxicity": "inactive: 12.4%"}
{"smiles": "CSCCC(NS(=O)(=O)c1ccc2c(c1)oc(=O)n2C)C(=O)N1CCN(c2cc(C)ccc2C)CC1", "note": "(stereo unspecified)", "activity change, negative = cytotoxicity": "inactive: -11%"}
{"smiles": "COc1ccc(C2CC(=O)NC(NC(=O)c3ccc(Br)cc3)=N2)c(OC)c1OC", "note": "(stereo unspecified)", "activity change, negative = cytotoxicity": "inactive: 8.79%"}
{"smiles": "CCOc1ccccc1NC(=O)CSc1nc(=O)[nH]c2c1CCCC2", "activity change, negative = cytotoxicity": "inactive: -4.65%"}
{"smiles": "O=C(CS(=O)(=O)c1cccc2nsnc12)Nc1ccccc1", "activity change, negative = cytotoxicity": "inactive: 16.2%"}
{"smiles": "CC(=O)N1CCOc2cc(S(=O)(=O)NCc3ccc(C)cc3)c(Cl)cc21", "activity change, negative = cytotoxicity": "inactive: -1.37%"}
{"smiles": "COc1ccc(C2(Nc3cccc(C(=O)O)c3C)C(=O)c3ccccc3C2=O)cc1", "activity change, negative = cytotoxicity": "inactive: 8.44%"}
{"smiles": "O=C(/C=C\\c1ccc2c(c1)OCO2)NC1CC(=O)N(c2ccc(Cl)cc2)C1", "note": "(stereo unspecified)", "activity change, negative = cytotoxicity": "inactive: 0.449%"}
{"smiles": "COc1ccc(-c2csc3nc(-c4ccccc4C)oc(=O)c23)cc1OC", "activity change, negative = cytotoxicity": "inactive: 22.7%"}
